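Exposure lasted 48 hours, with cells grown in 96-well plates and compounds tested at five concentrations. GI50 = concentration required for 50% inhibition of growth.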 For part of its entries the source gives two or more results. This is not the full list of results. An entry can have further records. For some assays here: A record mostly stands for its own series of concentrations, not given here; some values may only mark the edge of a range. For some assays here: The records of an entry repeat one measurement in other runs, samples, wells, individuals or studies. Brackets tell where a record comes from. A, B and so on number the origins entry by entry.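 TGI marks complete inhibition of growth.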

Test systems include HL-60(TB) leukemia; CAKI-1 renal; EKVX NSCLC; COLO 205 colon; HCT-116 colon; LOX IMVI melanoma; HOP-92 NSCLC; A549 NSCLC; KM12 colon; OVCAR-5 ovarian; NCI-H226 lung; TK-10 renal; SK-MEL-2 melanoma; HCC-2998 colon; UACC-62 melanoma.
Assay in all cases: growth of human tumour cells (NCI), 48 h

In the case of `Cc1c2ccncc2c(C)c2c1[nH]c1ccc(Cl)cc12`, the TGI with HL-60(TB) leukemia was 6.43 µM and > 100 µM; in the assay on CAKI-1 renal it was 20.3 µM [1 test] and 1.15 µM [mean of 4 tests].

As for `CC1OC(=O)C(C(C)C)NC(=O)C(C(C)C)OC(=O)C(C(C)C)NC(=O)C(C)OC(=O)C(C(C)C)NC(=O)C(C(C)C)OC(=O)C(C(C)C)NC(=O)C(C)OC(=O)C(C(C)C)NC(=O)C(C(C)C)OC(=O)C(C(C)C)NC1=O` (configuration not stated), the TGI is < 0.1 nM and 694 nM in the assay with EKVX NSCLC; < 0.1 nM and 10.1 nM in the assay on COLO 205 colon; 0.161 nM and 667 nM with LOX IMVI melanoma; < 0.1 nM and 25 nM in the assay with HL-60(TB) leukemia; < 0.1 nM and 3.44 nM with HOP-92 NSCLC; 158 nM and 4.09 µM in the assay with KM12 colon. Besides, the TGI with OVCAR-5 ovarian was 202 nM [1 test] and 8.4 µM [mean of 4 tests]. In addition, the GI50 is < 0.1 nM [1 test] and 2.5 nM [mean of 3 tests] in the assay on HCT-116 colon; < 0.1 nM [1 test] and 4.45 nM [mean of 4 tests] with A549 NSCLC; < 0.1 nM [1 test] and 2.5 nM [mean of 4 tests] in the assay with OVCAR-5 ovarian; 0.107 nM [1 test] and 4.68 nM [mean of 3 tests] in the assay with NCI-H226 lung.

In the case of `O=C(NOCCO)c1cc(CN2OCCCC2=O)c(F)c(F)c1Nc1ccc(I)cc1F`, in the assay with TK-10 renal, the GI50 was 1.28 µM [sample A, mean of 2 tests] and 11 nM [sample B, mean of 2 tests]. Also, the TGI with SK-MEL-2 melanoma is 2.24 µM [sample A, 1 test] and 112 nM [sample B, mean of 2 tests]; with HCC-2998 colon, 450 nM [sample A, mean of 2 tests] and > 10 µM [sample B, mean of 2 tests]; with UACC-62 melanoma, 629 nM [sample A, mean of 2 tests] and 16.2 nM [sample B, 1 test].

These data come from PubChem BioAssay (NCI).
